Screen size: about 48,000 compounds; about 1,200 (2.5%) were called active. Inconclusive results (about 2%) are left out.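 How the source made its calls: active means activation of at least 60% and not above a set upper limit (about 1 call in 100 departs from these limits); inconclusive means activation of 40% to 60%, or above that upper limit; inactive means activation under 40%.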 This is one part of the list.
The molecules below were run against Probable G-protein coupled receptor 32 (Homo sapiens) (UniProt O75388) (assay: qHTS for Agonists of Human Resolvin D1 Receptor DRV1). Conditions: CHO-K1 GPR32 beta-arrestin PathHunter luminescence, 90 min; at 76.9 µM; hits give high values; zero percent set by DMSO-only wells.
Outline: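 GPR32 activation in stably transfected CHO-K1 cells, detected as beta-arrestin recruitment by enzyme-fragment complementation. Compound exposure: 90 min, 37 °C.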
Further: 0% is about no effect.

Sequence of UniProt O75388 (O75388 whole entry, looked up, the tested form may be a part): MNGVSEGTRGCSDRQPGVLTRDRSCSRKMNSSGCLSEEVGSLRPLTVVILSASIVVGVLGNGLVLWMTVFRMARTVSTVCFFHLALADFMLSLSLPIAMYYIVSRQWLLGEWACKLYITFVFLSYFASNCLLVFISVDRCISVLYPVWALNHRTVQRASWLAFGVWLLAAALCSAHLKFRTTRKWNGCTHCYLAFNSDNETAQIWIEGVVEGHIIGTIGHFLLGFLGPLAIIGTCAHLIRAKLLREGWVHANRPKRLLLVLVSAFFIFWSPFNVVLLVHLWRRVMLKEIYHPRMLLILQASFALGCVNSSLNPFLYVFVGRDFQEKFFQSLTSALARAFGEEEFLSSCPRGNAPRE

activation, inactive:
Cc1cc(C)cc(NC(=O)C2CCN(S(=O)(=O)c3cccc(-c4noc(C)n4)c3)CC2)c1 -0.107%
Cc1ccc(CNC(=O)CCCN2C(=O)COc3ccc(C)cc32)cc1 -2.08%
Fc1ccc(Br)cc1C1C=C(c2ccc(Br)cc2)Nc2nnnn21 (stereo not drawn) -41.3%
CC1=Nc2cc(C(=O)NC(C)C)ccc2Sc2ccc(C)cc21 2.2%
O=C(CC1N=C2c3ccccc3N=C(SCC(=O)Nc3ccccc3F)N2C1=O)NCc1cccs1 (stereo not drawn) -17.1%
Cc1cccc(NC(=O)C(=O)NCCc2csc(-c3ccc(C(F)(F)F)cc3)n2)c1C -14.7%
Cc1ccc2sc(N(Cc3cccnc3)C(=O)C3COc4ccccc4O3)nc2c1C (stereo not drawn) -1.73%
CC1CCc2c(sc(NC(=O)c3cc(-c4ccc(F)cc4)on3)c2C(N)=O)C1 (stereo not drawn) -1.75%
Cc1ccc(NC(=O)c2c(NC(=O)c3ccccc3)sc3c2CCC3)cc1 -4.56%
CCc1ccc(CN(C(=O)c2cc(=O)c3ccc(C)cc3o2)C2CCS(=O)(=O)C2)cc1 (stereo not drawn) -16.8%
CCN(CC)CCNC(=O)c1ccc(-n2c(-c3ccccc3)cc3c2CCCC3)cc1 -22.1%
COc1cccc(CNC(=O)CCCn2nc(C)c3c(C)n(-c4ccc(C)cc4)nc3c2=O)c1OC -11.4%
CC(C)Cn1c(=O)c2sccc2n2c(CCCC(=O)NC3CCCCC3)nnc12 -7.87%
COc1cc(C2C(C(=O)Nc3ccccc3)=C(C)Nc3nnnn32)cc(OC)c1OC (stereo not drawn) 9.15%
COc1ccc(-c2noc(CN(C(=O)c3cc(OC)c(OC)cc3OC)C(C)C)n2)cc1 1.25%
O=C(NC1CC(=O)N(c2ccc(Cl)cc2)C1)c1ccc(S(=O)(=O)N2CCOCC2)cc1 (stereo not drawn) -0.928%
COc1ccc(-c2noc(CSc3nc(N)cc(=O)[nH]3)n2)cc1OC 16.3%
CCOC(=O)c1ccc(NC(=O)c2nc(SCc3ccccc3F)ncc2Cl)cc1 -27.8%
CCCCOC(=O)c1ccc(Nc2nnc(-n3nc(C)cc3C)c3ccccc23)cc1 -12.5%
Cc1nnc2c3ccccc3nc(Nc3cccc(O)c3)n12 -12.4%
Cc1ccc(Cl)cc1NC(=O)C1CCN(c2nc3ccccc3n3cccc23)CC1 -11.9%
CCCn1c2ccccc2c2cnn(CC(=O)NCCc3ccc(C)cc3)c(=O)c21 22.1%
CCOc1ccc2nc(N3CCCC(C(=O)NCc4ccccc4OC)C3)sc2c1 (stereo not drawn) -5.46%
Cc1ccc(/C=C/c2onc(C)c2S(=O)(=O)N2CCC(C(=O)Nc3cc(F)ccc3F)CC2)cc1 -4.31%
CCOc1ccc(S(=O)(=O)Nc2cc(Cl)ccc2OC)c2cccnc12 3.65%
COC(=O)C1=CO[C@@H](O)[C@@H]2C(CO)=CC[C@H]12 -7.9%
Cc1cc(C)c2oc(C(=O)Nc3ccc(S(=O)(=O)Nc4nccc(C)n4)cc3)cc(=O)c2c1 -5.75%
CCc1nn(CC(=O)NCCCOC)c(=O)c2cc3ccccc3n12 1.13%
Cc1ccc(CN2CCCn3nc(C(=O)NCC(C)c4ccccc4)cc3C2=O)cc1 (stereo not drawn) 5.75%
CC(=O)Nc1ccn(C2COC(COC(=O)c3ccccc3)O2)c(=O)n1 (stereo not drawn) -0.917%
COc1ccc(Nc2oc(/C=C/c3ccc(OC)c(OC)c3)nc2C#N)cc1 -13.7%
COCCn1c(=O)[nH]c2cc(C(=O)Nc3cccc(C(C)=O)c3)ccc2c1=O 0.602%
CCCn1c(CCC(=O)Nc2ccccc2OC)nc2cccnc21 -5.7%
Cc1cc(C)cc(-n2ccn(Cc3ccc(F)cc3)c(=O)c2=O)c1 -31.6%
CCOc1ccc(S(=O)(=O)NCCc2sc3nc(-c4ccc(C)cc4)nn3c2C)cc1 -2.75%
Cc1cccc(C)c1Nc1c(-c2ccc(O)cc2)nc2sccn12 -1.51%
O=c1c2sc3ccccc3c2n(Cc2cccc(C(F)(F)F)c2)c(=O)n1Cc1ccc(F)cc1 10.3%
O=c1oc2ccccc2cc1-c1cn2cc(Cc3ccc(Br)cc3)sc2n1 -5.3%
COc1ccc2oc(-c3cccc(NC(=O)c4sc5c([N+](=O)[O-])cccc5c4Cl)c3)nc2c1 -1.35%
COc1ccc(NC(=O)CC2C(=O)N(c3cccc(OC)c3)C(=O)N2Cc2ccc3c(c2)OCO3)cc1 (stereo not drawn) 30.3%
COc1cccc2c1C(=O)c1c(O)c3c(c(O)c1C2=O)C[C@@](O)(C(=O)CO)C[C@@H]3O[C@H]1C[C@H](N)[C@H](O[C@@H]2CCCCO2)[C@H](C)O1 -36.5%
Cc1ccc(-c2cn(-c3ccc(Cl)cc3)c(S(=O)(=O)CC(=O)Nc3ccccc3)n2)cc1 -19.4%
Cc1ccc(Cn2c(SCc3ccc(C(=O)NC4CCCC4)cc3)nc3ccncc32)cc1 17.8%
CCn1c(=O)cc(OCC(=O)Nc2ccc(C)c(F)c2)c2ccccc21 5.53%
O=c1oc2ccccc2cc1-c1cn2cc(Cc3ccccc3F)sc2n1 -1.63%
Cc1nn(-c2ccccc2)c(OC(=O)C(C)(C)C)c1Sc1ccccc1 -14.5%
CC(C)OC(=O)c1cc(C(=O)OC(C)C)cc([N+](=O)[O-])c1 7.92%
Cc1ccc2nc(NCCc3ccccc3)c3nncn3c2c1 -1.77%
COCCn1c(=N)c(C(=O)NCc2ccco2)cc2c(=O)n3cc(C)ccc3nc21 -11.4%
COC(=O)c1cc(NS(=O)(=O)c2cc(Br)cc3c2N(C(C)=O)CC3)cc(C(=O)OC)c1 -6.02%
Cc1ccc(-n2c(-c3ccco3)nc3c(cnn3-c3ccccc3C)c2=O)cc1 1.12%
Cc1ccc(C(=O)Nc2ccc3oc(-c4ccncc4)nc3c2)c(Cl)c1 43.9%
Cc1cccc(-n2c(=O)c3c(c4cc(C)ccc4n3C)n(CC(=O)Nc3ccc(C)cc3C)c2=O)c1 -1.82%

Reference: PubChem BioAssay AID1346428 (National Center for Advancing Translational Sciences (NCATS), 2018)
